This is one part of the list. These are noisy estimates, calculated here from bound and input reads.

The assay addresses T1, Pho4 (S. cerevisiae) (UniProt P07270).
T1 sequence: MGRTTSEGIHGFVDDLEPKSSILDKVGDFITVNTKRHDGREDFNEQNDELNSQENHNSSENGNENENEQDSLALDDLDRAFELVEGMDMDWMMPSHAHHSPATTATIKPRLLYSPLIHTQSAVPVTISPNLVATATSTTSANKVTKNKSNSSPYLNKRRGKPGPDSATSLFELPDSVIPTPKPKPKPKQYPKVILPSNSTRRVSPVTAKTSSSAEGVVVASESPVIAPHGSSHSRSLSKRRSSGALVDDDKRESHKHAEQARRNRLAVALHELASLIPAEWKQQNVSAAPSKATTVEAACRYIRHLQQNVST
The assay is described as follows: relative binding free energy (BET-seq); higher = weaker binding. Particulars: reference: library average.
Regarding AACAACACGTGGTGGG, the “relative binding free energy” value was -0.03 kcal/mol. With GGAAGCACGTGTACGG, the “relative binding free energy” value is -0.06 kcal/mol. Consider GATGTCACGTGTTCGT, for which the “relative binding free energy” value was 0.11 kcal/mol. The figure for TTACGCACGTGTGGCG is 0.06 kcal/mol; for ATAAACACGTGTGTGC it is 0 kcal/mol; for TGGACCACGTGAGGTG it is 0 kcal/mol. Regarding TAGAGCACGTGGGGCT, the “relative binding free energy” value was -0.34 kcal/mol. As to TTATGCACGTGTAGGT, the “relative binding free energy” value amounted to 0.04 kcal/mol. For AGGGACACGTGGGTGT the value was -0.13 kcal/mol. In the case of CTAATCACGTGTGGGA, the “relative binding free energy” value was 0.15 kcal/mol.

ATGTTCACGTGTTCGG: the “relative binding free energy” value came out at 0.3 kcal/mol. With TCTGTCACGTGGTGTA, the “relative binding free energy” value was 0.03 kcal/mol. Consider TCAGACACGTGGGGGA, for which the “relative binding free energy” value was -0.06 kcal/mol. For TGAGTCACGTGTTCGT the value was 0.16 kcal/mol. The figure for CTCGGCACGTGTGTTA is -0.02 kcal/mol; for GTTTTCACGTGTTAAT it is 0.26 kcal/mol; for TCATTCACGTGTAGGT it is 0.13 kcal/mol. For TTTTCCACGTGCGGTG the value was 0.05 kcal/mol; for GCGAGCACGTGGTGTG, -0.22 kcal/mol; for AGTGGCACGTGATGCT, -0.19 kcal/mol. Take GGTGGCACGTGTTTAG: the “relative binding free energy” value is -0.08 kcal/mol. The figure for GTTAACACGTGTTTAT is -0.03 kcal/mol; for TTAGGCACGTGCCGGT it is -0.21 kcal/mol. The figure for TGTAACACGTGGTTTT is -0.01 kcal/mol; for TTCGCCACGTGGTTTG it is -0.16 kcal/mol. For GGCTCCACGTGGGGGT the value was -0.14 kcal/mol; for ACGGACACGTGTGATT, 0.34 kcal/mol; for AACATCACGTGGGGCG, 0.08 kcal/mol. Turning to CGTGGCACGTGTATGT, the “relative binding free energy” value was -0.2 kcal/mol.

For the sequence TGATCCACGTGGTTAT, the “relative binding free energy” value was -0.06 kcal/mol.

CTGGACACGTGCAGGG: the “relative binding free energy” value was -0.01 kcal/mol.

In the case of ATTTTCACGTGAGTCG, the “relative binding free energy” value was 0.51 kcal/mol. The figure for GGGGGCACGTGTTCAC is -0.09 kcal/mol; for GTGTGCACGTGGGGGA it is -0.12 kcal/mol. Take TTCTACACGTGAGGAT: the “relative binding free energy” value was 0.36 kcal/mol.

With ATAAGCACGTGGGCGG, the “relative binding free energy” value was -0.24 kcal/mol. The figure for AGGTACACGTGAAGCG is 0.32 kcal/mol; for TCTGGCACGTGATGTA it is -0.01 kcal/mol.

In the case of TGCATCACGTGTCGGT, the “relative binding free energy” value was found to be 0.09 kcal/mol. For GTGCACACGTGGGTTA the value was 0.03 kcal/mol; for AGGCACACGTGGGCGG, -0.22 kcal/mol; for AGGAGCACGTGAGGAT, 0.12 kcal/mol.

As for TCAATCACGTGTATTG, the “relative binding free energy” value is 0.1 kcal/mol. Take GACGCCACGTGTTGTT: the “relative binding free energy” value worked out at 0.04 kcal/mol. Regarding GAGGACACGTGGGTGC, the “relative binding free energy” value is -0.07 kcal/mol.

Consider TACTGCACGTGGGTGT, for which the “relative binding free energy” value was -0.19 kcal/mol. The figure for TTTGACACGTGCGTTT is -0.07 kcal/mol.

For GGGCCCACGTGGCGGG, the “relative binding free energy” value is -0.23 kcal/mol. The figure for TGACGCACGTGTTTTG is -0.13 kcal/mol; for TGTTACACGTGTCGGG it is 0.02 kcal/mol; for TAGTACACGTGTATGG it is 0.11 kcal/mol.

GATTGCACGTGCTAGT: the “relative binding free energy” value is -0.02 kcal/mol. The figure for AGTGCCACGTGGGTCA is -0.2 kcal/mol.

With AGTTACACGTGGTTGT, the “relative binding free energy” value is 0.1 kcal/mol. The figure for GAAATCACGTGACGTT is 0.72 kcal/mol. For AAGGTCACGTGGCGTG, the “relative binding free energy” value was determined as 0.03 kcal/mol.

Consider CGTGACACGTGAAGTG, for which the “relative binding free energy” value amounted to 0.24 kcal/mol. For the sequence CAAGGCACGTGATTGT, the “relative binding free energy” value was 0.08 kcal/mol.

As for TGGTTCACGTGTACAG, the “relative binding free energy” value was 0.47 kcal/mol. As for ATCTTCACGTGGCGTT, the “relative binding free energy” value is 0.12 kcal/mol.

As for TGCGTCACGTGTGTGG, the “relative binding free energy” value worked out at 0.16 kcal/mol. The figure for AATCACACGTGGAGGG is 0.14 kcal/mol; for GGCGGCACGTGTCGGA it is 0.05 kcal/mol. For AATGTCACGTGATTAA the value was 0.19 kcal/mol; for TCGGACACGTGAGGGT, 0.16 kcal/mol. For CATGTCACGTGTTTGT the value was 0.1 kcal/mol; for TAGTACACGTGGGCAT, -0.2 kcal/mol. As to TGGTGCACGTGCTGGA, the “relative binding free energy” value was -0.05 kcal/mol.

In the case of GGTGTCACGTGATGGT, the “relative binding free energy” value worked out at 0.24 kcal/mol. The figure for GGTTACACGTGTGTAA is 0.17 kcal/mol. For AGAGGCACGTGTTTGC the value was -0.12 kcal/mol. The figure for GGGGACACGTGATAGC is 0.24 kcal/mol; for AATGCCACGTGTTTGT it is -0.13 kcal/mol; for GTGATCACGTGTAGTA it is 0.1 kcal/mol. Turning to AGGTACACGTGGAGTG, the “relative binding free energy” value came to 0 kcal/mol. For GTCGTCACGTGTTGAT the value was -0.06 kcal/mol. For GGAGACACGTGGGGAA the value was -0.01 kcal/mol; for TTGGTCACGTGTTAGG, 0.13 kcal/mol; for CCGGGCACGTGCGGGT, -0.33 kcal/mol. Take AGTGACACGTGACTGG: the “relative binding free energy” value is 0.09 kcal/mol. The figure for AGTGACACGTGTTTCA is 0.06 kcal/mol.

ATAGGCACGTGGATAG: the “relative binding free energy” value was -0.16 kcal/mol. Consider GTGTCCACGTGGTGTA, for which the “relative binding free energy” value is 0.04 kcal/mol. For GGTGTCACGTGCTGGA, the “relative binding free energy” value is 0.06 kcal/mol. As for AGGTGCACGTGTCCGT, the “relative binding free energy” value is -0.08 kcal/mol. For ATGGTCACGTGCGTTG the value was 0.07 kcal/mol. The figure for TAGTACACGTGATTAT is 0.25 kcal/mol; for GTGGGCACGTGCATGG it is -0.13 kcal/mol. The figure for TTTTGCACGTGATGTT is 0.16 kcal/mol; for ATTCTCACGTGAAGGG it is 0.51 kcal/mol; for ATTTTCACGTGTATTG it is 0.18 kcal/mol. With AAGGGCACGTGCAGGT, the “relative binding free energy” value is -0.16 kcal/mol. For TGATACACGTGGTATT the value was -0.06 kcal/mol; for GTTTACACGTGATAAG, 0.29 kcal/mol. For TTAGTCACGTGGTTTC the value was 0.06 kcal/mol; for TAATTCACGTGGAAGG, 0.26 kcal/mol; for CAGGTCACGTGGGAGA, 0.05 kcal/mol. The figure for GGGGGCACGTGCTTTG is -0.05 kcal/mol. With AGGGTCACGTGCAGGA, the “relative binding free energy” value was determined as 0.11 kcal/mol. For TGGGACACGTGTGGTC the value was 0.09 kcal/mol; for AAGTTCACGTGTTATG, 0.25 kcal/mol; for GGGGGCACGTGGCGCT, -0.26 kcal/mol. For the sequence GAGTTCACGTGAGGTT, the “relative binding free energy” value was determined as 0.38 kcal/mol. Turning to ATTTTCACGTGATGAA, the “relative binding free energy” value was 0.28 kcal/mol. Turning to TCAATCACGTGATGGT, the “relative binding free energy” value turned out to be 0.33 kcal/mol.

On to ATTTGCACGTGCTTGG, for which the “relative binding free energy” value was -0.05 kcal/mol. Regarding TTGGACACGTGGTACT, the “relative binding free energy” value was -0.08 kcal/mol. The figure for ATGTGCACGTGAGAGA is 0.17 kcal/mol; for TCGGGCACGTGTTAGG it is -0.01 kcal/mol. For GCCTTCACGTGTTTTT the value was 0.43 kcal/mol.

On to ATTAGCACGTGTGGAG, for which the “relative binding free energy” value was -0.08 kcal/mol.

Turning to GAGAGCACGTGTGTTG, the “relative binding free energy” value was -0.17 kcal/mol.

Regarding GTGTACACGTGTCTTT, the “relative binding free energy” value was determined as 0.01 kcal/mol. TCGAACACGTGTAGTG: the “relative binding free energy” value worked out at 0.12 kcal/mol.

For the sequence AATGTCACGTGAAGAT, the “relative binding free energy” value came out at 0.39 kcal/mol.

Source of the values: the BET-seq Pho4 binding data (Le et al. 2018).
